The campaign covered roughly 310,000 compounds. About 14,000 (4.5%) showed an effect of 50% or more. Effects have a minus sign here. Some of the results follow.
The compounds below were run against human ether-à-go-go-related gene (hERG) potassium channel (human, UniProt Q12809) (assay: primary screen, population patch clamp on CHO cells stably expressing hERG).
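Note: peak tail current of the secondary pulse compared with the same well before compound.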

Sequence of human ether-à-go-go-related gene (hERG) potassium channel (Q12809 whole entry, looked up): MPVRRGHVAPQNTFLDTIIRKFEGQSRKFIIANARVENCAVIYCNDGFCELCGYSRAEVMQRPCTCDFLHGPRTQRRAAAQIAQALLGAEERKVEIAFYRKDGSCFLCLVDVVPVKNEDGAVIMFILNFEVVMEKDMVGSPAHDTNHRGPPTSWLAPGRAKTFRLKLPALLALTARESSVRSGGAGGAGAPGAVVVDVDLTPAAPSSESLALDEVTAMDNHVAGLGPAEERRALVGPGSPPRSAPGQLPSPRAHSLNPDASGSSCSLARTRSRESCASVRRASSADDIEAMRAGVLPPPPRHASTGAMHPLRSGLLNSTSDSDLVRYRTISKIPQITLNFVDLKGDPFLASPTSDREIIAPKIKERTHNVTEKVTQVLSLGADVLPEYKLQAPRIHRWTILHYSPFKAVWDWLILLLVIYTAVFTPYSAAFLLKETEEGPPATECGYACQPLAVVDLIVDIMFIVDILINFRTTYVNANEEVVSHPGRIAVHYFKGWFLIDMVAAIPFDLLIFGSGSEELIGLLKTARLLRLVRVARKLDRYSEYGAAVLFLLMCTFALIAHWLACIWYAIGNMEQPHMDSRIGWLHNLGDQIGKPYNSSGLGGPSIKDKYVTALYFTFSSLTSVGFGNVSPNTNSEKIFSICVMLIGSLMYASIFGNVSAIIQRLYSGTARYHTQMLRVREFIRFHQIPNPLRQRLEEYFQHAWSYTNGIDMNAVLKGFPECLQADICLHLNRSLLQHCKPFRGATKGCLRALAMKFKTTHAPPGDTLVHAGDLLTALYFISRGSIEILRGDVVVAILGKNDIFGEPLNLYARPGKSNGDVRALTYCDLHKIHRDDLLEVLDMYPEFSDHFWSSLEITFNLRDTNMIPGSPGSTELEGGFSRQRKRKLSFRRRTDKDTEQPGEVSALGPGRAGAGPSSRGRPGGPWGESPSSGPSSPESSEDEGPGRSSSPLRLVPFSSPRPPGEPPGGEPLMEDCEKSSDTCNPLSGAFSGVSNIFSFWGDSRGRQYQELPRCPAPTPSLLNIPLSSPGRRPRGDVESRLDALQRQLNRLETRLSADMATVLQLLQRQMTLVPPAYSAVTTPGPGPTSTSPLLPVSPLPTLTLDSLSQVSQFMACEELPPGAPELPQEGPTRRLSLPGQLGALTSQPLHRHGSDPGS

Going from `CCOc1ccc(-c2n[nH]c(=S)c3ccccc23)cc1` to `COc1ccc2c(-c3ccccc3)cc3nnnn3c2c1`, the “hERG current change (%, negative = inhibition) at 10uM” value falls from 11.8% to 3.09%.

Going from `COc1ccc(S(=O)(=O)NC2CC3CCC2C3)cc1Br` (stereo not shown) to `Cc1ccc([N+](=O)[O-])cc1S(=O)(=O)N1CCN(C)CC1`, the “hERG current change (%, negative = inhibition) at 10uM” value rises from -12.6% to 0.51%.

Going from `C/C(=N\Nc1nc(N)cc(Cl)n1)c1cccc(N)c1` to `Cc1ccc2nc(SCC(=O)Nc3cccc(Cl)c3)nc(=O)n2c1`, the “hERG current change (%, negative = inhibition) at 10uM” value rises from -32.5% to -2.54%.

First: CC1CCCCC1NC(=O)C1CCN(c2c3c(nc4ncnn24)CCC3)CC1 (stereo not shown)
Second: O=C(NC1CCCCC1)C1CC=CCC1C(=O)OCC(Cl)=C(Cl)Cl (stereo not shown)
The “hERG current change (%, negative = inhibition) at 10uM” value of the first is higher: 4.49% for the first, -20.7% for the second.

Compared with `CC1CCN(C(=O)c2[nH]cnc2C(=O)N[C@@H](C)C(=O)OC(C)(C)C)CC1`, `COc1ccc(-c2nnn(CC(=O)N(c3cccc(O)c3)C(C)C(=O)NC3CCCC3)n2)cc1OC` (stereo not shown) is lower in “hERG current change (%, negative = inhibition) at 10uM” value: -2.18% for the first, -7.47% for the second.

Compared with `COc1ccc(CNC(=O)c2ccc(NS(=O)(=O)c3c(C)noc3C)cc2)cc1`, `CC(C)Oc1ccc(C(=O)NCc2ccco2)cc1` is higher in “hERG current change (%, negative = inhibition) at 10uM” value: -5.69% for the first, 2.54% for the second.

Compared with `O=c1c2ccccc2nc(SCc2ccc(F)cc2Cl)n1CCCN1CCOCC1`, `O=c1c2ccccc2nnn1COc1ccc(F)cc1Cl` is lower in “hERG current change (%, negative = inhibition) at 10uM” value: -0.00712% for the first, -0.122% for the second.

Compared with `O=C(Cc1ccccc1)Nc1nnc(-c2ccccc2)o1`, `Cc1nc2ccccc2cc1OCc1ccccc1` is higher in “hERG current change (%, negative = inhibition) at 10uM” value: 4.55% for the first, 23% for the second.

Compared with `CCc1cccc(OCC2Cn3c(nc4c3c(=O)[nH]c(=O)n4C)O2)c1` (stereo not shown), `Cc1cccc(Cn2c(CN3CCN(Cc4ccccc4)CC3)nc3c2c(=O)[nH]c(=O)n3C)c1` is lower in “hERG current change (%, negative = inhibition) at 10uM” value: 12.2% for the first, -64.9% for the second.

First: O=C1NC(=O)C(=Cc2ccsc2)C(=O)N1
Second: O=C1CN(C(=O)c2cnccn2)c2ccccc2N1
The “hERG current change (%, negative = inhibition) at 10uM” value of the first is lower: 7.9% for the first, 14.7% for the second.

First: CCC(=O)Nc1cc2nn(-c3ccc(C)cc3)nc2cc1C
Second: CCCCN1C(=O)c2ccc(C(=O)Nc3cccc(C)c3C)cc2C1=O
The “hERG current change (%, negative = inhibition) at 10uM” value of the first is higher: 19.4% for the first, 17.2% for the second.

First: S=c1[nH]nc(Nc2ccc(Cl)cc2)s1
Second: CCCn1c(=S)[nH]c2cc(Cl)ccc21
The “hERG current change (%, negative = inhibition) at 10uM” value of the first is higher: 27.1% for the first, 9.68% for the second.

First: Cc1ccc(O)c(-c2cc(C(F)(F)F)[nH]n2)c1
Second: Cc1ccc2c(c1)c(-c1csc(N)n1)c(C)n2C
The “hERG current change (%, negative = inhibition) at 10uM” value of the first is higher: -0.292% for the first, -0.788% for the second.

Compared with `Cc1ccccc1Nc1nnc(SCc2cc([N+](=O)[O-])cc3c2OCOC3)s1`, `Cc1ccccc1NN1C(=O)C=CC1=O` is higher in “hERG current change (%, negative = inhibition) at 10uM” value: -17% for the first, -8.26% for the second.

Going from `CCOC(=O)CSc1nc2c(sc(=S)n2-c2ccccc2OC)c(=O)n1Cc1ccco1` to `COc1cc2nc(=S)n3[nH]c(CCn4c(C)nc5ccccc54)nc3c2cc1OC`, the “hERG current change (%, negative = inhibition) at 10uM” value rises from -7.11% to 23.4%.

Going from `CC(C)=CCc1c(-c2ccc(O)cc2O)oc2cc3c(c(O)c2c1=O)C=CC(C)(C)O3` to `CC1(C)Cc2cccc(C(=O)NCc3ccco3)c2O1`, the “hERG current change (%, negative = inhibition) at 10uM” value falls from 23.7% to 15.3%.

First: CCC(=O)c1ccc(OCc2ccc(C(=O)c3ccccc3)cc2)cc1
Second: CC(=O)Nc1ccc(N(C(=O)c2ccccn2)C(C(=O)NC2CCCCC2)c2ccc(F)cc2)cc1 (stereo not shown)
The “hERG current change (%, negative = inhibition) at 10uM” value of the first is higher: 11.6% for the first, -5.7% for the second.

Compared with `COc1ccccc1CC(=O)Nc1ccc(F)cc1F`, `COCC(=O)Nc1ccc([N+](=O)[O-])cc1OC` is higher in “hERG current change (%, negative = inhibition) at 10uM” value: 1.18% for the first, 1.42% for the second.

Compared with `CC(C)=CC(=O)NCc1c(Cl)cccc1-n1cccc1`, `CC(=O)NCC(=O)NC(C(=O)Nc1ccc2c(c1)OCCO2)c1ccccc1` (stereo not shown) is lower in “hERG current change (%, negative = inhibition) at 10uM” value: 29.5% for the first, 6.08% for the second.

First: Cc1cccn2c(=O)c3cc(S(=O)(=O)c4ccc(Br)cc4)c(=N)n(C4CCCC4)c3nc12
Second: Cc1cccc(N2CC(C(=O)Nc3ccc(S(=O)(=O)Nc4nccs4)cc3)CC2=O)c1C (stereo not shown)
The “hERG current change (%, negative = inhibition) at 10uM” value of the first is lower: 9.92% for the first, 10.1% for the second.

First: CSc1ccc(NC(=O)N2CCN(c3nc4ccccc4s3)CC2)cc1
Second: CC(=O)Nc1ccc(S(=O)(=O)NC2=C(N3CCN(C)CC3)C(=O)c3ccccc3C2=O)cc1
The “hERG current change (%, negative = inhibition) at 10uM” value of the first is higher: 1.47% for the first, -0.763% for the second.

Going from `CCOC(=O)/C=C/C(=O)OCC(=O)Nc1c(Cl)cccc1Cl` to `CCOC(=O)Nc1ccc(OC)cc1S(=O)(=O)N1CCCCC1`, the “hERG current change (%, negative = inhibition) at 10uM” value falls from -9.87% to -22.8%.

Compared with `Cl.c1cncc(CNCCc2c[nH]c3ccccc23)c1`, `COc1ccc(CN(C)Cc2nc3scc(-c4ccccc4)c3c(=O)[nH]2)cc1OC` is lower in “hERG current change (%, negative = inhibition) at 10uM” value: 4.01% for the first, 3.98% for the second.

Going from `Clc1ccc(-c2nnc(SCc3nc4ccccc4[nH]3)o2)c(Cl)c1` to `c1ccc2c(c1)Cn1nc(Cc3nc4c(s3)CCCC4)nc1-2`, the “hERG current change (%, negative = inhibition) at 10uM” value falls from -4.46% to -34%.

First: CCOC(=O)c1c(/N=C/c2ccc(OC)cc2O)sc2c1CCN(C)C2
Second: C=CCOc1ccc(/C=N/NC(=O)CN(c2cc(Cl)ccc2OC)S(=O)(=O)c2ccc(C)c([N+](=O)[O-])c2)cc1
The “hERG current change (%, negative = inhibition) at 10uM” value of the first is lower: -10.6% for the first, 2.45% for the second.

Going from `O=c1c(/C=N/N2CCOCC2)c(O)n(-c2ccccc2)c(=S)n1-c1ccccc1` to `O=C(O)c1cc(-c2ccccc2)c(N2CCOCC2)s1`, the “hERG current change (%, negative = inhibition) at 10uM” value rises from -0.752% to 12.7%.

Compared with `CCOC(=O)C1(CCCc2ccccc2)CCN(CCCn2cccn2)CC1`, `CCCCSCCCNC(=O)Nc1ccc(C)c(C)c1` is higher in “hERG current change (%, negative = inhibition) at 10uM” value: -79.1% for the first, 6.21% for the second.

Compared with `COc1nc(NCc2ccco2)nc(NC2CCCCC2)n1`, `Cc1cc(S(=O)(=O)N2CCCC(N3CCOCC3)C2)c(C)cc1Cl` (stereo not shown) is higher in “hERG current change (%, negative = inhibition) at 10uM” value: -33.2% for the first, -26.3% for the second.

Going from `O=C(c1cccc(F)c1)N1C2C=CC(C2)C1(C(F)(F)F)C(F)(F)F` (stereo not shown) to `C=CCNC(=S)/N=c1\sccn1C`, the “hERG current change (%, negative = inhibition) at 10uM” value falls from -0.667% to -15.8%.
